Assay results reported in PubChem BioAssay AID1768 (National Center for Advancing Translational Sciences (NCATS), 2009).
About 620 (0.23%) of roughly 270,000 compounds were called active. Inconclusive results, whose numbers are uncertain, are shown with a selection of clear calls. Calls follow the shape of the dose curve; as a rule, active = well fitted inhibition curve with a large enough effect in the polarisation, with a control signal flat (not every such curve was filed as active); inconclusive = small, poorly fitted or top-dose-only effect, or effect the other way, or a change in a side signal; inactive = no such curve, though single readings can be large or run the other way; the % refers to the polarisation. Potencies of inconclusive entries are doubtful fits and often do not repeat. “Side channel” marks fits to a control or component signal instead of the main read-out.

Each molecule was assayed against Menin (Homo sapiens) (UniProt O00255) (assay: qHTS Assay for Inhibitors Targeting the Menin-MLL Interaction in MLL Related Leukemias: Competition With Texas Red Labeled MLL-derived Mutant Peptide). Details: fluorescence polarization; series mostly up to 61.6 µM.
Chain of UniProt O00255 (O00255 whole entry, looked up): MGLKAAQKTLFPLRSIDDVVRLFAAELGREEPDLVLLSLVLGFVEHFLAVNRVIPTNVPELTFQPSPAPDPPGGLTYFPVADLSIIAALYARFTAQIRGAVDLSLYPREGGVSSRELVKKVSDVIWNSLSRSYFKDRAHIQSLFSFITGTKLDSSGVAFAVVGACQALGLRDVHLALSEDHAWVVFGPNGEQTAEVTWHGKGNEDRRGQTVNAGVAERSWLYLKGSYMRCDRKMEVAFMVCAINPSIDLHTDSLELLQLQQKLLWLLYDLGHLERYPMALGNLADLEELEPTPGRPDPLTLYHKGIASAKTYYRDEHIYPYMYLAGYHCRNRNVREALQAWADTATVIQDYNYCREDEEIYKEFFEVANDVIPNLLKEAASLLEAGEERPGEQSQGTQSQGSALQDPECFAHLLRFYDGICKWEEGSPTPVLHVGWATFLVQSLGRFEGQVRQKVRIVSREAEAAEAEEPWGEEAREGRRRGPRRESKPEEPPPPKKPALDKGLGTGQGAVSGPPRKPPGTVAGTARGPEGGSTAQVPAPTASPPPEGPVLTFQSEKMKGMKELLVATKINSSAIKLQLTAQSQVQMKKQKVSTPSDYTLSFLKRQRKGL
Potency is read from the fitted curve at half-maximal effect; tags tell the direction and shape of the fitted curve or compound fluorescence and quenching.

Row | SMILES | Potency
1 | O=C(N/N=C/c1cc([N+](=O)[O-])cc([N+](=O)[O-])c1O)/C(=C\c1cccs1)NC(=O)c1ccccc1 | inconclusive: 39.8 µM [quencher, side channel, single point]
2 | OC1C2COC(O2)[C@H](O)C1O (stereo partly specified) | inactive
3 | Cc1ccc(CNC(=O)N2CCN(C)CC2)cc1 | inconclusive: 35.5 µM [inhibitor, partial curve]
4 | O=C1CCCc2c1cc(C(=O)NCc1ccco1)c(=O)n2-c1ccc(Cl)cc1 | inconclusive: 25.1 µM [inhibitor, single point]
5 | CCC(C)c1ccc(O)c(NC(=O)c2cncc(Br)c2)c1 (stereo unspecified) | inconclusive: 25.1 µM [quencher, side channel, partial curve]
6 | CSc1ccc(C#N)cc1NC(=O)c1ccc(Cl)cc1 | inconclusive: 39.8 µM [inhibitor, single point]
7 | Cc1ccc(/C=N/NC(=O)c2ccc3ccccc3c2)s1 | inconclusive: 35.5 µM [quencher, single point]
8 | NC(=O)c1cc2nc(-c3ccco3)cc(C(F)(F)F)n2n1 | inactive
9 | O=C(CCc1ccccc1)Nc1ccccc1C(=O)N1CCOCC1 | inconclusive: 20 µM [inhibitor, partial curve]
10 | COc1ccc(S(=O)(=O)n2nc(OC(=O)c3c(-c4ccccc4Cl)noc3C)cc2N)cc1 | inconclusive: 39.8 µM [inhibitor, single point]
11 | O=C(NNC(=O)c1ccc2ccccc2c1O)c1ccccc1Cl | inconclusive: 25.1 µM [quencher, partial curve]
12 | Cc1ccc(-n2c(=O)c3sccc3n(Cc3cc(=O)n4ccccc4n3)c2=O)cc1 | inactive
13 | Cc1ccccc1-n1cc(CNC(=O)CC2C(=O)NCCN2C/C=C/c2ccccc2)cn1 (stereo unspecified) | inconclusive: 11.2 µM [inhibitor, partial curve]
14 | O=[N+]([O-])c1ccc(N2CCN(C(=S)NCc3ccc(Cl)cc3)CC2)cc1 | inconclusive: 2.24 µM [quencher, side channel, partial curve]
15 | Cc1ccc(C(=O)Nc2nc3ccccc3c(=O)s2)cc1 | inconclusive: 39.8 µM [inhibitor, single point]
16 | O=c1cc(-c2ccccc2Cl)oc2cc(O)cc(O)c12 | inconclusive: 39.8 µM [inhibitor, single point]
17 | CCOCCCNC(=O)c1ccc(N2CCOCC2)c(NS(=O)(=O)c2ccc(OC)cc2)c1 | inconclusive: 50.1 µM [inhibitor, partial curve, poor fit]
18 | COc1ccc(-c2ccnc(SCC(=O)c3ccc(Cl)cc3)n2)cc1 | inconclusive: 39.8 µM [quencher, side channel, single point]
19 | Cc1ccc(NC2=CC(=O)C(=O)c3ccccc32)cc1 | inactive

Row | SMILES | Potency
20 | O=C(CSc1ccc(Br)cc1)Nc1ccccc1Oc1ccccc1 | inconclusive: 17.8 µM [fluorescent, side channel, partial curve]
21 | CCCc1ccc(OCc2ccc(C(=O)NN)o2)c(OC)c1 | inconclusive: 10 µM [inhibitor, partial curve]
22 | Cc1ccc2[nH]cc(CCCN3C(=O)c4ccccc4C3=O)c2c1 | inconclusive: 28.2 µM [quencher, side channel, single point]
23 | O=C(C1=NN(c2ccccc2)C2C(=O)N(c3ccc(Cl)cc3)C(=O)C12)c1ccccc1 (stereo unspecified) | inconclusive: 14.1 µM [inhibitor, partial curve]
24 | Cc1noc(C)c1-c1ccc2ncnc(NCc3cc(F)cc(F)c3)c2c1 | inconclusive: 3.16 µM [quencher, side channel, partial curve]
25 | CC(C)N1CCc2c(sc(N)c2C#N)C1 | inactive
26 | Cc1noc(NS(=O)(=O)c2ccc(N/C=C\C(=O)c3ccc(Br)cc3)cc2)c1C | inconclusive: 11.2 µM [quencher, side channel, partial curve]
27 | O=C(Nc1ccc(N2CCOCC2)cc1)c1cccc(S(=O)(=O)N2CCC(Cc3ccccc3)CC2)c1 | inconclusive: 7.94 µM [quencher, side channel, partial curve]
28 | CCc1ccc(CNC(=O)Cc2ccc(NC(=O)C3=C(C)OCCS3)cc2)cc1 | inconclusive: 31.6 µM [quencher, side channel, single point]
29 | O=C(Nc1nnc(C2CC2)s1)c1ccc(S(=O)(=O)c2ccccc2)cc1 | inconclusive: 39.8 µM [inhibitor, single point]
30 | Cc1ccc(N(C(=O)c2snc(C(N)=O)c2N)C(CC(C)C)C(=O)NC2CCCC2)cc1 (stereo unspecified) | inactive
31 | Nc1c(C(=O)c2ccccc2O)cnn1-c1ccc(S(=O)(=O)N2CCOCC2)cc1[N+](=O)[O-] | inconclusive: 2.82 µM [quencher, side channel, full curve, poor fit]
32 | NC(=O)c1c(NC(=S)Nc2ccc(F)cc2)sc2c1CCCC2 | inconclusive: 14.1 µM [quencher, side channel, partial curve]
33 | COc1cccc(OCC(=O)NNC(=O)c2ccc3ccccc3c2O)c1 | inconclusive: 28.2 µM [quencher, side channel, partial curve]
34 | COc1ccc(NS(=O)(=O)c2cc(NC(=O)c3cnc(C)cn3)ccc2N2CCCC2)cc1 | inconclusive: 14.1 µM [quencher, side channel, partial curve]
35 | O=C(CCCN1C(=O)/C(=C\c2cccs2)SC1=S)Nc1cccc(C(=O)O)c1 | inconclusive: 31.6 µM [quencher, side channel, single point]
36 | COc1cc(C2Nc3cccc4cccc(c34)N2)cc(OC)c1O | inconclusive: 2.82 µM [quencher, side channel, full curve]
37 | CC(Sc1nnc(Cn2c(=O)sc3ccccc32)n1C)c1ccccc1 (stereo unspecified) | inconclusive: 39.8 µM [fluorescent, side channel, single point]
38 | CCN1C(=O)/C(=C\c2ccc(-c3ccc([N+](=O)[O-])cc3OC)o2)SC1=Nc1cccc(C(=O)O)c1 | inconclusive: 22.4 µM [quencher, side channel, partial curve]

Row | SMILES | Potency
39 | CN1c2ccsc2C(O)=C(C(=S)Nc2ccc(F)c(Cl)c2)S1(=O)=O | inconclusive: 15.8 µM [quencher, side channel, partial curve]
40 | COc1cccc(-c2cnc(OC(C)(C)C)nc2OC(C)(C)C)c1 | inconclusive: 11.2 µM [fluorescent, side channel, partial curve]
41 | CSc1nc(Cl)c(Cc2ccc(OCC(C)C)cc2)c(N2CCOCC2)n1 | inconclusive: 7.94 µM [fluorescent, side channel, full curve, poor fit]
42 | CNC[C@H](CC1CCCCC1)NC[C@H](NCCC1CCCC1)[C@H](C)O | inconclusive: 14.1 µM [inhibitor, single point]
43 | COc1cccc(C(=O)C2=NN(C(C)=O)CC2c2ccco2)c1 (stereo unspecified) | inconclusive: 12.6 µM [inhibitor, partial curve, poor fit]
44 | CCCCN(CCCC)c1nc(OC)nc(-n2nnc(C(C)=O)c2C)n1 | inconclusive: 10 µM [fluorescent, side channel, partial curve]
45 | CCOC(=O)COc1ccc2nsnc2c1Cl | inconclusive: 8.91 µM [inhibitor, single point]
46 | CN=c1scc(C)n1/N=C/c1cc(Br)c(O)c(OC)c1 | inconclusive: 14.1 µM [quencher, side channel, partial curve]
47 | CN(C)/N=C/c1ccc(Sc2ccc([N+](=O)[O-])cc2[N+](=O)[O-])o1 | inconclusive: 31.6 µM [quencher, side channel, partial curve]
48 | C=CCc1cccc(/C=N/c2ncccc2O)c1O | inconclusive: 2.82 µM [inhibitor, full curve, poor fit]
49 | CCC1CCCN1Cn1cnc2c([nH]c3ccc(OC)cc32)c1=O (stereo unspecified) | inconclusive: 12.6 µM [inhibitor, partial curve, poor fit]
50 | CC(=O)c1ccc(NC(=O)c2ccc(C)c(S(=O)(=O)N3CCOCC3)c2)cc1 | inactive
51 | CSc1nc2oc3c(c2c2nncn12)CC(C)(C)SC3 | inconclusive: 35.5 µM [inhibitor, single point]
52 | COc1cc(Br)cc(CN2CCN(C/C=C/c3ccccc3)CC2)c1O | inactive
53 | CC(C)C[C@H](NC(=O)[C@H](CO)NC(=O)[C@@H]1CCCN1C(=O)[C@H](Cc1ccc(O)cc1)NC(=O)[C@H](CC(C)C)NC(=O)[C@H](CC(C)C)NC(=O)[C@@H]1CCCN1C(=O)[C@@H](NC(=O)[C@H](CO)NC(=O)[C@H](CO)NC(=O)[C@H](CO)NC(=O)[C@H](CO)NC(=O)[C@@H]1CCCN1C(=O)[C@@H](NC(=O)[C@@H](N)CO)C(C)C)[C@@H](C)O)C(=O)N[C@@H](C)C(=O)N[C@@H](CC(C)C)C(=O)N1CCC[C@H]1C(=O)N[C@@H](C)C(=O)N1CCC[C@H]1C(=O)O | inactive
54 | Cc1ccc(S(=O)(=O)N(C)c2ccc(OC(=O)c3ccc(N4CCCC4=O)cc3)cc2)cc1 | inconclusive: 10 µM [fluorescent, side channel, partial curve]
55 | O=C(Nc1ccc(N2CCOCC2)cc1)c1ccc2nc(-c3ccco3)c(-c3ccco3)nc2c1 | inconclusive: 12.6 µM [quencher, side channel, partial curve]
56 | S=C(NCCc1ccccc1)NCCN1CCOCC1 | inconclusive: 11.2 µM [inhibitor, partial curve]
